# Assay results as given in PubChem BioAssay AID2100 (National Center for Advancing Translational Sciences (NCATS), 2009).
# Out of some 300,000 compounds screened, about 1,200 (0.4%) were called active. Inconclusive results, whose numbers are uncertain, are shown with a selection of clear calls. Calls follow the shape of the dose curve; as a rule, active = well fitted inhibition curve with a large enough effect; inconclusive = small, poorly fitted or top-dose-only effect, or another doubt; inactive = no such curve, though single readings can be large or run the other way. Where the call is inconclusive, the potency comes from a doubtful curve fit.
# Target: Lysosomal alpha-glucosidase (Homo sapiens) (UniProt P10253)
# Test: qHTS Assay for Inhibitors and Activators of Human alpha-Glucosidase Cleavage of Glycogen
# Details: recombinant GAA, glycogen substrate, Amplex Red glucose oxidase fluorescence; series mostly up to 76.4 µM
# Summary of the method: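 Recombinant human alpha-glucosidase (4 nM final) hydrolysed bovine liver glycogen (30 ug) for 40 min at 37 C in pH 5.0 citrate/phosphate with 0.01% Tween-20. Released glucose detected by glucose oxidase/Amplex Red, Ex 573/Em 610 nm. Compounds up to 77 uM; AC50 from Hill fits.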
# Potency is read from the fitted curve at half-maximal effect.
row,SMILES,Potency
1,CCC1c2ccc(C)n2CCN1C(=O)Nc1ccccc1C(=O)OC (configuration not stated),"inconclusive: 17.6 µM [activator, partial curve]"
2,CCN=c1scc(C)n1/N=C/c1cc(Br)c(O)c(Br)c1,inactive
3,CCOC(=O)/C(C#N)=C\C=C1C=CN(C)C=C1,"inconclusive: 24.9 µM [inhibitor, partial curve]"
4,Cc1cc(C)cc(NC(=S)NN)c1,"inconclusive: 28.2 µM [inhibitor, single point]"
5,CCCCCCC1(C)NC(=S)N(c2ccccc2)N1 (configuration not stated),"inconclusive: 35.5 µM [inhibitor, partial curve]"
6,Cc1cc(C)nc(NNC2=CC(=[N+]3CCCC3)CCC2)n1,active: 2.24 µM
7,Cc1nnc(C)c2c(C)n(-c3ccc4ncccc4c3)c(C)c12,"inconclusive: 35.2 µM [activator, partial curve]"
8,COC(=O)C1=[N+]([O-])OC(C(=O)OC)C1c1c[nH]c2ccccc12 (configuration not stated),"inconclusive: 39.8 µM [inhibitor, single point]"
9,Cc1ccc(S(=O)(=O)N(C)CCCC(=O)Nc2ccc(F)cc2)cc1,inactive
10,CS/C(N)=N/C(=S)Nc1cccc(Cl)c1,"inconclusive: 28.2 µM [inhibitor, partial curve]"
11,CC(C)Nc1nc(NC(C)C)nc(N(C)N)n1,active: 28.2 µM
12,Oc1[nH]c2ccccc2c1C=Nc1ccc2c(c1)OCCO2,active: 31.6 µM
13,CSc1ccc(/C=N/N2CCN(Cc3ccc(Cl)cc3)CC2)cc1,"inconclusive: 35.5 µM [inhibitor, single point]"
14,CCOc1cc(C(=O)Nc2ccncc2)cc(OCC)c1OCC,"inconclusive: 50.1 µM [inhibitor, single point]"
15,COc1cc(OC)c(OC)cc1/C=N/NC(=O)c1cnccn1,"inconclusive: 35.5 µM [inhibitor, single point]"
16,N#CC(c1ccncc1)(c1ncc(C(F)(F)F)cc1Cl)N1CCOCC1 (configuration not stated),"inconclusive: 15.8 µM [inhibitor, partial curve]"
17,CCN1CCN(C(=S)Nc2ccc3nc(N4CCN(C)CC4)cc(C)c3c2)CC1,"inconclusive: 22.4 µM [inhibitor, partial curve]"
18,Cc1cc(/C=N/NC(=O)c2ccc(O)cc2)c(C)n1C1CC1,"inconclusive: 22.4 µM [activator, partial curve]"
19,CSc1nc(C)c2c(n1)N(c1ccc(O)cc1)CC2,"inconclusive: 2.24 µM [inhibitor, full curve]"
20,CC/C(=N\NC(C)=O)c1ccc(OC(F)F)cc1,inactive
21,CCc1nn(CCCC(=O)N2CCN(c3cc(Cl)ccc3C)CC2)c(=O)c2cc3occc3n12,inactive
22,N#Cc1c(-c2cccnc2)c2c([nH]c1=S)CCCC2,"inconclusive: 12.5 µM [inhibitor, partial curve]"
23,C#CCOc1ccc(/C=C2/C(=O)N(c3cccc(C(=O)O)c3)N=C2C)cc1OC,inactive
24,COc1cc(/C=C(\C#N)C(=O)N2CCCCC2)ccc1O,inactive

row,SMILES,Potency
1,COC(=O)c1ccc(NC(=S)NNC(=O)CC(C)C)cc1,"inconclusive: 7.88 µM [inhibitor, partial curve]"
2,CNC(=S)Nc1ccc(Nc2ccccc2)cc1,active: 24.9 µM
3,CN1C(=O)/C(=C/C=C2\SCCN2C)N(C)C1=S,active: 11.2 µM
4,COc1cccc(CC2CC(=O)N(CCc3ccc4c(c3)OCO4)C2=O)c1 (configuration not stated),"inconclusive: 8.84 µM [inhibitor, single point]"
5,CCc1ccccc1NC(=O)Nc1nnc(N(C)Cc2ccccc2)s1,inactive
6,Cc1ccsc1/C=N/Nc1nc(=O)[nH]nc1C,inactive
7,Cn1c(=O)c2c(nc(NN=C3CCCCC3)n2C)n(C)c1=O,"inconclusive: 31.6 µM [inhibitor, single point]"
8,COc1ccc2c(Sc3ccccc3)c(C(=O)NCCCN3CCCCC3)[nH]c2c1,inactive
9,CN(C)c1ccc(N=Cc2ccco2)cc1,"inconclusive: 22.4 µM [activator, single point]"
10,CCOCCn1c(CN(Cc2ccccc2)Cc2ccccc2)nc2c1c(=O)n(C)c(=O)n2C,"inconclusive: 112 µM [inhibitor, partial curve]"
11,O=C1CSC(=S)N1/N=C/c1cc(Br)c(O)c(Br)c1,"inconclusive: 17.8 µM [inhibitor, partial curve]"
12,COc1ccccc1C1Nc2c(sc3nc(C)cc(C)c23)C(=O)N1c1ccccc1 (configuration not stated),"inconclusive: 3.98 µM [inhibitor, partial curve]"
13,COc1cc(/C=N/NC(=O)C(=O)/C=C2\NC(C)(C)Cc3ccccc32)ccc1O,active: 35.5 µM
14,COCCNC(=S)Nc1ccc(N2CCCCC2)cc1,"inconclusive: 12.6 µM [inhibitor, partial curve]"
15,CC(Oc1ccc2c(-c3ccccc3)cc(=O)oc2c1)C(=O)NC(Cc1c[nH]c2ccc(O)cc12)C(=O)O (configuration not stated),"inconclusive: 3.55 µM [inhibitor, full curve]"
16,CN(C)/N=C1\CCS(=O)(=O)c2sccc21,"inconclusive: 22.4 µM [inhibitor, partial curve]"
17,CC(=O)c1cccc(NC(=S)NC(=O)c2ccc(C)cc2Cl)c1,"inconclusive: 44.7 µM [inhibitor, partial curve, poor fit]"
18,Nc1ccc(-c2nc3c(Cl)c(N)ccc3[nH]2)cc1,"inconclusive: 19.8 µM [inhibitor, single point]"
19,COc1ccc(Nc2c(-c3ccc(N4CCOCC4)cc3)nc3ncccn23)cc1OC,"inconclusive: 12.6 µM [inhibitor, partial curve]"
20,Cc1cc(C(=O)NN=C2C3CC4CC(C3)CC2C4)c2ccccc2n1,"inconclusive: 44.7 µM [inhibitor, single point]"
21,Oc1ccc2ccccc2c1C1Nc2cccc3cccc(c23)N1,active: 10 µM
22,COC1=CC(=Cc2c(N)n3nc(CC(=O)N4CCOCC4)sc3nc2=O)C=C(OC)C1=O,"inconclusive: 28.2 µM [inhibitor, single point]"
23,COc1ccc(Oc2c(-c3ccc(O)cc3O)n[nH]c2C)cc1,"inconclusive: 15.7 µM [inhibitor, partial curve]"
